These results are taken from ChEMBL document CHEMBL4888484, “Replenishing the malaria drug discovery pipeline: Screening and hit evaluation of the MMV Hit Generation Library 1 (HGL1) against asexual blood stage Plasmodium falciparum ,using a nano luciferase reporter read-out” (2022).

SMILES strings stand for the structures. The whole screen tested about 150,000 compounds, of which about 540 (0.36%) showed an effect of 50% or more. This is one part of the list.

The subject of this test is Plasmodium falciparum. Kind of test: Primary screen in NF54 nanoGlo assay, in single point, at 2uM, 72h; a lower Z score goes with more inhibition. It is filed as functional, Erythrocyte. The settings on record: timepoint 72 hour.
Consider `Cc1ncc(S(C)(=O)=O)c(N2C[C@H]3CC=CC[C@H]3C2)n1`, for which the % Inhibition (as a rule, the change of the read-out against control, counted positive when it falls) was determined as 2% and the Z score is reported as -0.19.
The matching figures for `Cc1ccc(-c2cccnc2)cc1NC(=O)NCC(F)(F)C(F)F`: -5% and 0.73.
Taken in the same sequence, the figures for `Cc1nn(-c2ccccc2)c(C)c1CN1CC2OCCN(C)C2C1` (stereo unspecified) were -4% and 0.47.
With `CCN1c2cc(C)ccc2-n2cccc2C12CCN(C(=O)Nc1ccccc1C(F)(F)F)CC2`, the “% Inhibition” value was -14% and the Z score is on record as 1.98.
For `CC(C)CCn1ccc(NC2CCOC2C)n1` (stereo unspecified), the “% Inhibition” value is listed as -11% and the Z score amounted to 1.63.
Taken in the same sequence, the figures for `Cc1cc(C(=O)N[C@@H](Cc2ccccc2)C(N)=O)nc(C)n1` were -2% and 0.38.
Taken in the same sequence, the figures for `CCOC(=O)C(NC(=O)[C@@H]1Cc2cccc(F)c2O1)C(=O)OCC` were 29% and -3.3.
The matching figures for `O=C(CN1CCC[C@H](O)C1)N(C1CCCCC1)C1CCCCC1`: 28% and -0.83.
Regarding `CCOC(=O)CN(C1CCCC1)S(=O)(=O)N(C)C`, the “% Inhibition” value is listed as 1% and the Z score is given as -0.1.
As to `O=S(=O)(c1ccc(F)cc1F)N1CC(OCc2ccccc2F)C1`, the “% Inhibition” value is -9% and the Z score is listed as 1.72.
The matching figures for `CCOC(C)C(=O)N1C2C=C(c3ccccc3)CC1CC2` (stereo unspecified): 8% and -0.79.
The matching figures for `CCC(=O)NC1=NN2C(=NC(c3ccc(Cl)cc3)=C[C@H]2c2ccc(F)cc2)N1`: 5% and -0.64.
Taken in the same sequence, the figures for `CCCCNCCOCCOc1c(C)cccc1Cl` were 7% and -1.35.
Consider `COCCC1(S(=O)(=O)NCCc2ccc(C)c(OC)c2)CC1`, for which the “% Inhibition” value came to 14% and the Z score is on record as -1.8.
The matching figures for `C[C@]1(c2nc(C3CC3)no2)CCCN(C(=O)c2n[nH]c3ccccc23)C1`: -6% and 0.75.
The matching figures for `CC(C)(C)OC(=O)NC(C(=O)O)C1CCCC(C(F)(F)F)C1` (stereo unspecified): -16% and 1.64.
The matching figures for `Cc1cc(Oc2ccc(C#N)cc2)ccc1NC(=O)N1CCO[C@H](C(=O)O)C1`: -13% and 1.19.
Regarding `CCOC(=O)C1CCN(C(=O)[C@@H](NC(=O)c2cc(-c3ccccc3Cl)on2)C(C)C)CC1`, the “% Inhibition” value is -11% and the Z score is 1.66.
Taken in the same sequence, the figures for `Cc1ccc(-n2c(=O)c3c(cnn3C)n(CC(=O)Nc3ccccc3C)c2=O)cc1` were 1% and -0.09.
Taken in the same sequence, the figures for `C[C@H]1CCCN(CCCNC(=O)CCC(=O)N2CCN(c3nc4cccnc4s3)CC2)C1` were -17% and 1.76.
Taken in the same sequence, the figures for `Cc1ccc2c(Nc3ccc4c(c3)OCO4)c(C(=O)N3CCC(C)CC3)cnc2n1` were -5% and 0.86.
In the case of `Cc1cc(=O)n(CC2CC2)c2cc(OCC(=O)Nc3ccccc3F)ccc12`, the “% Inhibition” value is -5% and the Z score stood at 0.71.
The matching figures for `COC[C@H]1CCN(C(=O)Nc2ccnn2CC2CC2)C1`: -5% and 1.02.
